# In PubChem BioAssay AID485360 (National Center for Advancing Translational Sciences (NCATS), 2010):
# The whole screen tested about 230,000 compounds, of which about 1,500 (0.65%) were called active. The shares of active, inactive and inconclusive entries below differ from those in the screen. Calls come from the whole dose curve; as a rule, active = well fitted inhibition curve with a large enough effect; inconclusive = small, poorly fitted or top-dose-only effect; inactive = no such curve, though single readings can be large or run the other way. Where the call is inconclusive, the potency comes from a doubtful curve fit.
# Target: Lethal(3)malignant brain tumor-like protein 1 (Homo sapiens) (UniProt Q9Y468)
# Assay: qHTS Assay for the Inhibitors of L3MBTL1; note: nearly all actives have a fitted effect of over 60% in size
# Conditions: AlphaScreen L3MBTL1–H3K9me1 peptide binding; activity, negative = inhibition: at 57.1 µM (top of the series)
# How it was run: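 L3MBTL1 50 nM + b-AHA-H3(1-15)K9me1 75 nM, 30 min RT; compound added, 30 min RT; streptavidin donor/Ni-chelate acceptor beads 10 ug/mL each final, 30 min RT dark; AlphaScreen read.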
# % is set by controls: 0 for no effect and ±100 for the full control effect; potency is the fitted concentration of half-maximal effect; tags give direction and shape of the fitted curve.
# Chain of UniProt Q9Y468 (Q9Y468 whole entry, looked up): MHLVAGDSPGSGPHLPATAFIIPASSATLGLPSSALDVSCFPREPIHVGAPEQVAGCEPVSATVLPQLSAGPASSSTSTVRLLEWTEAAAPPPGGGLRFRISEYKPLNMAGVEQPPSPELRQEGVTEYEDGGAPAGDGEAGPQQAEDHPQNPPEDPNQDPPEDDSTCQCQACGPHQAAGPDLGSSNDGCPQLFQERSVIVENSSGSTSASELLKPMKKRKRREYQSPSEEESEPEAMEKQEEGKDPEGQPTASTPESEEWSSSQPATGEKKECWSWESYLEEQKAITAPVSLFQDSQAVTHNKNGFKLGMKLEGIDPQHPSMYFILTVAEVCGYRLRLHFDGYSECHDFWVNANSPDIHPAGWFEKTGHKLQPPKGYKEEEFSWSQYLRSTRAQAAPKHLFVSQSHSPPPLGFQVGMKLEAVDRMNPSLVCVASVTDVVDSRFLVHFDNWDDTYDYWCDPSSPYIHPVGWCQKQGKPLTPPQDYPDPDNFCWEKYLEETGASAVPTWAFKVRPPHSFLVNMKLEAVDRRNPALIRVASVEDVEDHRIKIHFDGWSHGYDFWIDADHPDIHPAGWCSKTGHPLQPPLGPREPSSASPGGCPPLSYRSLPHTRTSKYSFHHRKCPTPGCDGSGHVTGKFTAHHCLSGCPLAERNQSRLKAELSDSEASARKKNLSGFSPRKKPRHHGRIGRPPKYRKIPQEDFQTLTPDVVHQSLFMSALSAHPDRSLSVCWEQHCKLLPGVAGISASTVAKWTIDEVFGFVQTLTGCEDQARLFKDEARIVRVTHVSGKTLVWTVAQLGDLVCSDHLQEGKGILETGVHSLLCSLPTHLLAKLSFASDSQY
SMILES,Potency,"activity, negative = inhibition"
Cc1ccccc1C1CC(c2cccs2)=NN1S(C)(=O)=O (stereo not given),"inconclusive: 7.08 µM [inhibitor, single point]",–
O=C1CC/C=C\C[C@@H](CC(=O)N(CCO)Cc2ccccc2)C(=O)NCCO1,"inconclusive: 0.708 µM [inhibitor, single point]",–
COc1cc(-c2nc(-c3ccccc3)c(-c3cc([N+](=O)[O-])ccc3C)[nH]2)cc(OC)c1OC,–,inactive: -29.7%
O=C(c1cccc(C(F)(F)F)c1)N1CCN(C2CCCCC2)CC1,–,inactive: 24% [at 11.4 µM]
Cc1ccc(CN=c2c([N+](=O)[O-])nn(-c3ccc4c(c3)OCCO4)n2O)cc1,"inconclusive: 31.6 µM [inhibitor, partial curve]",–
Nc1ccc2c(c1)C(=O)c1ccccc1C2=O,–,inactive: -4.12%
CC(C)N1CCN(C(=O)c2cccc(Cl)c2)CC1,–,inactive: 11.9%
CC(=O)NC(c1cc(F)c2cccnc2c1O)C1CC1 (stereo not given),"inconclusive: 31.6 µM [inhibitor, single point]",–
CN(/C=C/C(=C\C=[N+](C)c1ccccc1)OCCCS(=O)(=O)[O-])c1ccccc1,"inconclusive: 39.8 µM [inhibitor, single point]",–
Cc1cc(C)nc(NC(=S)Nc2ccccc2)n1,–,inactive: -5.74% [at 2.29 µM]
O=C(Cc1ccccc1[N+](=O)[O-])NC1CC1,"inconclusive: 0.1 µM [inhibitor, full curve, poor fit]",–
Cc1cc(NC(=O)CCCN2C(=O)c3cccnc3C2=O)ccc1Br,"inconclusive: 39.8 µM [inhibitor, single point]",–
COc1ccc(C2C(C(=O)N3CCCCC3)CCC(=O)N2c2cc(OC)c(OC)c(OC)c2)cc1 (stereo not given),"inconclusive: 10 µM [inhibitor, full curve, poor fit]",–
Cc1ccccc1CSc1nnc(NC(=O)Cc2cccs2)s1,"inconclusive: 35.5 µM [inhibitor, single point]",–
CN(C)c1ccc(/C=C/c2nc3ccccc3s2)cc1,–,inactive: -20.2%
O=c1[nH]c2cc3c(cc2cc1CN(Cc1cccnc1)C(=S)NCc1ccco1)OCCO3,"inconclusive: 0.1 µM [inhibitor, full curve, poor fit]",–
O=C(O)c1cc(N/N=C/c2cccs2)ccc1Cl,"inconclusive: 31.6 µM [inhibitor, single point]",–
c1ccc(CN2CCN(c3nc4ccccc4n4cnnc34)CC2)cc1,–,inactive: -3.25%
COc1cc(/C=C2\SC(c3ccccc3)=NC2=O)cc(Cl)c1O,"inconclusive: 39.8 µM [inhibitor, single point]",–
COc1ccc2c(COC(=O)CC3Sc4ccccc4NC3=O)cc(=O)oc2c1 (stereo not given),"inconclusive: 25.1 µM [inhibitor, single point]",–
